Data reported in the supplement of paper PMC10126150.
Sequences with one replicate were seen in a single cluster, so their values are uncertain.

tested on: ATP; assay: switch fluorescence ratio, 500 uM ATP over buffer (Cy3 cluster intensity, sum of 5 cycles each) (fold (ratio)); higher = stronger signal-on switching upon ATP binding; sequences stand for … in TCGTCGGCAGCGTCAGATGTGTATAAGAGACAGTTTTTTTTTTTTTTTTTTTTTTTTT…TC; settings: aptamer strand: ATP DNA aptamer (quencher-CACCTGGGGGAGTATTGCGGAGGAAGG + anchor), 100 nM annealed; ATP concentration: 500 uM; one replicate
How it was run: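 Imaging in selection buffer was followed by imaging after 15 min with 500 uM ATP at 22 °C, for Cy3-labelled switching-strand clusters annealed to 100 nM quencher-labelled ATP aptamer on a modified Illumina MiSeq flow-cell. Five of these buffer/ATP cycles ran, separated by NaOH stripping and re-annealing. The fluorescence ratio per cluster is summed target-cycle over summed buffer-cycle Cy3 intensity, averaged per switch-domain sequence; clusters outside 100-1000 RFU were removed.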
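Further: ATP exposure 15 min at 22 °C before imaging.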

Sequence	switch fluorescence ratio
GAGGATGTAG	0.942
AGCGTGGTTG	0.964
CTGTATGCAG	1.02
TCGTAGTTCG	1.1
ATCGTCTTCA	1
AACGTTGGGT	0.969
GGGTGACTAG	0.97
CCGCGGAGTC	1.43
GATCCGAGTC	1.08
GACGAGAAAC	1.26
CAAGCGGTCT	0.976
TACCGATTTA	1.06
TATATAACCA	0.968
CCCACGGCCG	1.02
CCGTCGGTTG	1.08
TGTGCGATGC	2.31
TCGGTGTAGC	0.997
TTGGTGTTGA	1.03
GAGAATAGGG	1.03
TAGGAGTCAC	0.957
AAGTACCTGG	1.27
CGCGTCCAA	1.04

Sequence	switch fluorescence ratio
AAGTGCACTA	0.995
TAATCCGAAA	2.32
ATATTTACAT	1.03
TTAGCTCTGT	0.972
TGAGTTCT	0.976
TCACGTGCG	1.07
GAGATGTTGC	0.992
GAGTCCGATG	1.13
CTTGGATCCT	1.01
ATTCCTGTTT	1.03
TTAACCAAC	1.49
AACTGGGATG	1.03
ATCTAGAATT	1.01
CAGGAATGTA	0.966
TTTACCAGGA	1.03
TTGGGTCGCC	1.01
CCCACAAGGT	1.61
GCACGTGTCC	0.99
TGGGTACCTT	1.06
ATCGGTTGAG	0.961
CCGCCATAAT	4.61
CGGCGTGGGC	0.997

Sequence	switch fluorescence ratio
AGAAGGCGAG	1.05
CGGTGTTTAA	0.978
CGACTTTCGA	1.04
GTTAGCGGAG	1.02
CGTGGCTCAG	0.975
GGTGCGAAGG	1.01
GCACCAATA	1.01
GAGGCTGCCG	0.968
GCAACTAATG	0.949
CTATGGTGTA	0.984
TGTACCCAGC	1.02
GCGTTTGGTC	1.01
CATAGACA	1.07
ATCATGTTGA	1.02
TAGCGGGTCG	1.08
TCTCTGCACG	1.72
CACTGTTTCA	0.993
GCTTTAGGAC	1.03
GGACAGTGGT	1.06
CTGCCCTTTG	0.995
CCGGGGTTTC	1.11
AATCGATGCC	1.02

Sequence	switch fluorescence ratio
TGTTCGCTTT	1.05
GCGGAGAAAG	0.985
ACTAACGAGA	1.24
AGAGTTAGCG	1.19
ATCCCAGTGG	1.16
TGTTTAGACA	0.993
TCCCCGATCT	1.11
CACTTCCGCA	1.34
CAATTCCTTT	0.978
TTCGTTTATA	0.954
ATTTGGCAAT	1.02
TGTCACCAGG	2.58
CTCGCTTAGT	1.12
GTCCGGGCTT	1.03
ATTGCGGTCG	1.04
CAGGTCCGTT	0.963
ATCCGTTAGA	1.04
AGCAAGTTTC	1.21
GAGCCATTCA	1
